# From the supplement of paper PMC8728848
# This is one part of the list.
# Experiments:
# Test in all cases: glycan array binding signal (z-score within array); higher = stronger binding
# Details in all cases: glycan notation: IUPAC condensed, linker removed
# [1] = target: GlcNAc(b1-3)GalNAc
# Summary of the method: (§1)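 Columns mapping to the same glycan were averaged after glycan names were converted to IUPAC-condensed notation. The data come from 3228 arrays in the Consortium for Functional Glycomics database, limited to those with an available protein sequence. Binding is reported as a within-array Z-score averaged across arrays of one protein sequence and across linkers.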
# [2] = target: GlcNAc(b1-3)Man
# Summary of the method: as §1
# [3] = target: GlcNAc(b1-3)[GlcNAc(b1-4)][GlcNAc(b1-6)]GlcNAc
# Summary of the method: as §1
# [4] = target: GlcNAc(b1-3)[GlcNAc(b1-6)]Gal(b1-4)GlcNAc
# Summary of the method: as §1
# [5] = target: GlcNAc(b1-3)[GlcNAc(b1-6)]GalNAc
# Summary of the method: as §1
# [6] = target: GlcNAc(b1-4)Gal(b1-4)GlcNAc
# Summary of the method: as §1
# [7] = target: GlcNAc(b1-4)GlcNAc
# Summary of the method: as §1
# [8] = target: GlcNAc(b1-4)GlcNAc(b1-4)GlcNAc
# Summary of the method: as §1
# [9] = target: GlcNAc(b1-4)GlcNAc(b1-4)GlcNAc(b1-4)GlcNAc(b1-4)GlcNAc
# Summary of the method: as §1
# [10] = target: GlcNAc(b1-4)GlcNAc(b1-4)GlcNAc(b1-4)GlcNAc(b1-4)GlcNAc(b1-4)GlcNAc
# Summary of the method: as §1
# [11] = target: GlcNAc(b1-4)[GlcNAc(b1-6)]GalNAc
# Summary of the method: as §1
# [12] = target: GlcNAc(b1-6)Gal(b1-4)GlcNAc
# Summary of the method: as §1
# [13] = target: GlcNAc(b1-6)GalNAc
# Summary of the method: as §1
# [14] = target: GlcNAc6S(b1-3)Gal(b1-4)GlcNAc
# Summary of the method: as §1
# [15] = target: Kdn(a2-3)Gal(b1-3)GalNAc
# Summary of the method: as §1
# [16] = target: Kdn(a2-3)Gal(b1-3)GlcNAc
# Summary of the method: as §1
# [17] = target: Kdn(a2-3)Gal(b1-4)Glc
# Summary of the method: as §1
# [18] = target: Kdn(a2-3)Gal(b1-4)GlcNAc
# Summary of the method: as §1
# [19] = target: Kdn(a2-3)Gal(b1-4)[Fuc(a1-3)]GlcNAc
# Summary of the method: as §1
# [20] = target: Kdn(a2-6)Gal(b1-4)GlcNAc
# Summary of the method: as §1
# [21] = target: Man(a1-2)Man(a1-2)Man(a1-3)Man
# Summary of the method: as §1
# [22] = target: Man(a1-2)Man(a1-2)Man(a1-6)[Man(a1-3)]Man
# Summary of the method: as §1
# [23] = target: Man(a1-2)Man(a1-3)Man
# Summary of the method: as §1
# [24] = target: Man(a1-2)Man(a1-3)[Man(a1-2)Man(a1-6)]Man
# Summary of the method: as §1
# [25] = target: Man(a1-2)Man(a1-3)[Man(a1-2)Man(a1-6)]Man(a1-6)[Man(a1-2)Man(a1-2)Man(a1-3)]Man
# Summary of the method: as §1
# [26] = target: Man(a1-2)Man(a1-3)[Man(a1-2)Man(a1-6)]Man(a1-6)[Man(a1-2)Man(a1-2)Man(a1-3)]Man(b1-4)GlcNAc(b1-4)GlcNAc
# Summary of the method: as §1
# [27] = target: Man(a1-2)Man(a1-3)[Man(a1-6)]Man(a1-6)[Man(a1-2)Man(a1-3)]Man(b1-4)GlcNAc(b1-4)GlcNAc
# Summary of the method: as §1
# [28] = target: Man(a1-2)Man(a1-6)[Man(a1-3)]Man(a1-6)[Man(a1-2)Man(a1-2)Man(a1-3)]Man
# Summary of the method: as §1
# [29] = target: Man(a1-2)Man(a1-6)[Man(a1-3)]Man(a1-6)[Man(a1-2)Man(a1-2)Man(a1-3)]Man(b1-4)GlcNAc(b1-4)GlcNAc
# Summary of the method: as §1
# [30] = target: Man(a1-3)[Man(a1-6)]Man
# Summary of the method: as §1
# [31] = target: Man(a1-3)[Man(a1-6)]Man(a1-6)[Man(a1-2)Man(a1-3)]Man(b1-4)GlcNAc(b1-4)GlcNAc
# Summary of the method: as §1
# [32] = target: Man(a1-3)[Man(a1-6)]Man(a1-6)[Man(a1-3)]Man
# Summary of the method: as §1
# [33] = target: Man(a1-3)[Man(a1-6)]Man(a1-6)[Man(a1-3)]Man(b1-4)GlcNAc(b1-4)GlcNAc
# Summary of the method: as §1
# [34] = target: Man(a1-3)[Man(a1-6)]Man(b1-4)GlcNAc(b1-4)GlcNAc
# Summary of the method: as §1
# [35] = target: Man(a1-3)[Man(a1-6)]Man(b1-4)GlcNAc(b1-4)[Fuc(a1-6)]GlcNAc
# Summary of the method: as §1
# [36] = target: Man(a1-6)Man
# Summary of the method: as §1
# [37] = target: Man(b1-4)GlcNAc
# Summary of the method: as §1
# [38] = target: MurNAc(b1-4)GlcNAc
# Summary of the method: as §1
binder,measurement,setting,value
"Gal-9-hFc (Mus musculus), O08573-2 (protein) MALFSAQSPYINPIIPFTGPIQGGLQEGLQVTLQGTTKSFAQRFVVNFQNSFNGNDIAFHFNPRFEEGGYVVCNTKQNGQWGPEERKMQMPFQKGMPFELCFLVQRSEFKVMVNKKFFVQYQHRVPYHLVDTIAVSGCLKLSFITFQTQNFRPAHQAPMAQTTIHMVHSTPGQMFSTPGIPPVVYPTPAYTIPFYTPIPNGLYPSKSIMISGNVLPDATRFHINLRCGGDIAFHLNPRFNENAVVRNTQINNSWGQEERSLLGRMPFSRGQSFSVWIICEGHCFKVAVNGQHMCEYYHRLKNLQDINTLEVAGDIQLTHVQT",glycan array binding signal (z-score),[1],-0.45
same,glycan array binding signal (z-score),[2],1.05
same,glycan array binding signal (z-score),[3],-0.562
same,glycan array binding signal (z-score),[4],-0.353
same,glycan array binding signal (z-score),[5],-0.343
same,glycan array binding signal (z-score),[6],-0.489
same,glycan array binding signal (z-score),[7],4.66
same,glycan array binding signal (z-score),[8],-0.132
same,glycan array binding signal (z-score),[9],-0.14
same,glycan array binding signal (z-score),[10],-0.128
same,glycan array binding signal (z-score),[11],-0.457
same,glycan array binding signal (z-score),[12],-0.464
same,glycan array binding signal (z-score),[13],-0.387
same,glycan array binding signal (z-score),[14],-0.36
same,glycan array binding signal (z-score),[15],-0.115
same,glycan array binding signal (z-score),[16],-0.153
same,glycan array binding signal (z-score),[17],2.38
same,glycan array binding signal (z-score),[18],-0.232
same,glycan array binding signal (z-score),[19],0.284
same,glycan array binding signal (z-score),[20],-0.286
same,glycan array binding signal (z-score),[21],-0.431
same,glycan array binding signal (z-score),[22],-0.231
same,glycan array binding signal (z-score),[23],-0.472
same,glycan array binding signal (z-score),[24],-0.471
same,glycan array binding signal (z-score),[25],-0.447
same,glycan array binding signal (z-score),[26],0.141
same,glycan array binding signal (z-score),[27],-0.393
same,glycan array binding signal (z-score),[28],-0.354
same,glycan array binding signal (z-score),[29],-0.312
same,glycan array binding signal (z-score),[30],-0.179
same,glycan array binding signal (z-score),[31],-0.26
same,glycan array binding signal (z-score),[32],1.45
same,glycan array binding signal (z-score),[33],-0.264
same,glycan array binding signal (z-score),[34],-0.509
same,glycan array binding signal (z-score),[35],-0.391
same,glycan array binding signal (z-score),[36],0.75
same,glycan array binding signal (z-score),[37],-0.031
same,glycan array binding signal (z-score),[38],-0.303
